Some of the results follow. Single values of this set are uncertain. Values with irradiation are relative to irradiated vehicle.
What was measured:
A549-Dual [1] = experiment: NF-kB reporter (SEAP) activity, viability-corrected, relative to vehicle (fold change vs vehicle); higher = more activation of STING-IRF / NF-kB immune response reporter; conditions: 10 µM
A549-Dual [2] = experiment: ISRE reporter (Lucia luciferase) activity, viability-corrected, relative to vehicle (fold change vs vehicle); higher = more activation of STING-IRF / NF-kB immune response reporter; conditions: 10 µM
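Throughout, for NF-kB reporter (SEAP) activity, viability-corrected, relative to vehicle: viability correction based on the alamar blue assay, with concentrations leaving 10% survival or less dropped.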

SMILES | NF-kB reporter (A549-Dual [1]; irradiation: 8 Gy/4 fr) | NF-kB reporter (A549-Dual [1]; irradiation: none) | ISRE reporter (A549-Dual [2]; irradiation: 8 Gy/4 fr) | ISRE reporter (A549-Dual [2]; irradiation: none)
C=CC(=C)C [Isoprene] | 0.902 | 0.9 | 0.989 | 0.709
Br.CN1C2CC(OC(=O)C(CO)c3ccccc3)CC1C(O)C2 (stereo not drawn) [Anisodamine Hydrobromide] | 0.748 | 0.764 | 0.686 | 0.646
NCC(CC(=O)O)c1ccc(Cl)cc1 [(R)-baclofen] | 0.618 | 1.05 | 0.499 | 0.655
CC(=O)OC1CCC2C3CCC4=CC(=O)CCC4=C3C=CC12C (stereo not drawn) [Trenbolone acetate] | 0.469 | 0.576 | 0.484 | 0.451
Cl.NCCc1c[nH]c2ccc(O)cc12 [Serotonin HCl] | 0.894 | 1.21 | 0.871 | 0.886
CC(C)N(CCC(C(N)=O)(c1ccccc1)c1ccccn1)C(C)C (stereo not drawn) [Disopyramide] | 0.967 | 1.37 | 0.816 | 0.841
CCC1(C)CC(=O)NC(=O)C1 [Bemegride] | 1.06 | 1.19 | 1.04 | 0.803
CC(C)CC1C(=O)N2CCCC2C2(O)OC(NC(=O)C3C=C4c5cccc6[nH]c(Br)c(c56)CC4N(C)C3)(C(C)C)C(=O)N12.CS(=O)(=O)O (stereo not drawn) [Bromocriptine Mesylate] | 0.635 | 1.16 | 0.476 | 1.3
CC1OC1P(=O)([O-])[O-].[Na+].[Na+] (stereo not drawn) [Fosfomycin Disodium] | 0.672 | 0.945 | 0.657 | 0.802
COc1ccc(C(CN(C)C)C2(O)CCCCC2)cc1.Cl (stereo not drawn) [Venlafaxine HCl] | 0.905 | 0.953 | 0.827 | 0.781
C=CC12CN(C)C3C4COC(CC41)C1(C(=O)Nc4ccccc41)C32 (stereo not drawn) [Gelsemine] | 1.17 | 0.725 | 1.33 | 0.911
CN(C)C(=O)Oc1ccc[n+](C)c1.[Br-] [Pyridostigmine Bromide] | 0.7 | 0.949 | 0.716 | 0.756
CN(C)C(=O)Oc1cccc([N+](C)(C)C)c1.[Br-] [Neostigmine Bromide] | 0.553 | 0.648 | 0.563 | 0.812
COc1ccc(C(=O)O)cc1OC [Veratric acid] | 0.747 | 0.594 | 0.767 | 0.694
COC12CC(COC(=O)c3cncc(Br)c3)CN(C)C1Cc1cn(C)c3cccc2c13 (stereo not drawn) [Nicergoline] | 1.08 | 0.611 | 0.87 | 0.647
O=c1ccc2cc(OC3OC(CO)C(O)C(O)C3O)c(O)cc2o1 (stereo not drawn) [Esculin] | 0.718 | 0.68 | 0.709 | 0.632
CCC1=CC2C(C1)CC2(CN)CC(=O)O (stereo not drawn) [Mirogabalin (DS-5565)] | 0.841 | 1.21 | 0.692 | 0.627
Cc1cc(O)ccc1Cl [Chlorocresol] | 0.802 | 0.603 | 0.69 | 0.563
Cc1ccc2c(c1)C13CCCCC1C(C2)N(C)CC3.O=P(O)(O)O (stereo not drawn) [Dimemorfan phosphate] | 0.86 | 0.593 | 0.915 | 0.655
Nc1nc(N)nc(NC2CC2)n1 [Cyromazine] | 0.892 | 1.02 | 0.79 | 0.838
CC1(C)C(C=C(Cl)Cl)C1C(=O)OCc1cccc(Oc2ccccc2)c1 (stereo not drawn) [Permethrin] | 0.764 | 0.844 | 0.698 | 0.728
CC1(C)SC2C(N)C(=O)N2C1C(=O)O (stereo not drawn) [6-Aminopenicillanic acid] | 0.956 | 0.807 | 0.978 | 0.764
CC(C)C(Br)C(=O)NC(N)=O (stereo not drawn) [Bromisoval] | 0.922 | 1.35 | 0.83 | 0.808
CN1c2ccccc2C(NCCCCCCC(=O)O)c2ccc(Cl)cc2S1(=O)=O (stereo not drawn) [Tianeptine] | 0.775 | 0.99 | 0.832 | 0.879
CCC1(c2cccc(O)c2)CCCCN(C)C1.Cl (stereo not drawn) [Meptazinol HCl] | 0.842 | 0.928 | 0.995 | 0.961
CC[N+](C)(CC)CCOC(=O)C(O)(c1ccccc1)c1ccccc1.[Br-] [Methylbenactyzine Bromide] | 0.596 | 0.781 | 0.558 | 0.646

SMILES | NF-kB reporter (A549-Dual [1]; irradiation: 8 Gy/4 fr) | NF-kB reporter (A549-Dual [1]; irradiation: none) | ISRE reporter (A549-Dual [2]; irradiation: 8 Gy/4 fr) | ISRE reporter (A549-Dual [2]; irradiation: none)
Oc1ccc(Cl)cc1Cc1cc(Cl)ccc1O [Dichlorophene] | 0.289 | 0.364 | 0.144 | 0.269
CCOC(=O)Nc1ccc(NCc2ccc(F)cc2)cc1N [Retigabine] | 0.452 | 0.951 | 0.459 | 0.617
Cc1ccc(N=CN(C)C=Nc2ccc(C)cc2C)c(C)c1 [Amitraz] | 0.98 | 1.08 | 1.01 | 0.993
CCC1CN2CCC3(C(=O)Nc4ccccc43)C2CC1/C(=C\OC)C(=O)OC (stereo not drawn) [Rhynchophylline] | 1.14 | 0.869 | 1.15 | 0.834
CC[n+]1c(-c2ccccc2)c2cc(N)ccc2c2ccc(N)cc21.[Br-] [Ethidium bromide] | 2.34 | 3.25 | 0.113 | 0.353
CCOC(=O)c1cncn1C(C)c1ccccc1 (stereo not drawn) [Etomidate] | 0.658 | 0.818 | 0.717 | 0.803
CC12C=CC(=O)C=C1CCC1C2CCC2(C)C1CCC2(C)O (stereo not drawn) [Methandrostenolone] | 0.681 | 0.616 | 0.713 | 0.56
CC(C)N(CCC(C(N)=O)(c1ccccc1)c1ccccn1)C(C)C.O=P(O)(O)O (stereo not drawn) [Disopyramide Phosphate] | 1.3 | 0.722 | 1.31 | 0.653
CC(=O)OC1CCC2(C)C(=CCC3C4CCC(=O)C4(C)CCC32)C1 (stereo not drawn) [Dehydroepiandrosterone acetate] | 0.992 | 0.713 | 1.09 | 0.671
NCCCNCCSP(=O)(O)O.O.O.O [Amifostine] | 0.959 | 0.912 | 0.839 | 0.842
Oc1cccc2cccnc12 [8-Hydroxyquinoline] | 0.881 | 0.982 | 0.967 | 0.769
O=C1CCCC2C3CCCN4CCCC(CN12)C34 (stereo not drawn) [Sophoridine] | 0.945 | 1.02 | 1.02 | 1.2
COc1cccc2c1cc([N+](=O)[O-])c1c(C(=O)O)cc3c(c12)OCO3 [Aristolochic acid A] | 0.865 | 0.637 | 0.818 | 0.621
O=C(OC1CC2CCC(C1)[N+]21CCCC1)C(O)(c1ccccc1)c1ccccc1.[Cl-] (stereo not drawn) [Trospium chloride] | 0.794 | 1.2 | 0.783 | 0.71
S=C=NCc1ccccc1 [Benzyl isothiocyanate] | 1.16 | 1.03 | 0.831 | 1.14
CCCN1CC(CSC)CC2c3cccc4[nH]cc(c34)CC21.CS(=O)(=O)O (stereo not drawn) [Pergolide Mesylate] | 0.606 | 0.772 | 0.78 | 1.21
C=C1CC2C(CCC3(C)C(=O)CCC23)C2(C)C=CC(=O)C=C12 (stereo not drawn) [Exemestane] | 0.905 | 1.01 | 0.87 | 0.863
CC12CCC3C(CCC4CC(O)CCC43C)C1CCC2=O (stereo not drawn) [Epiandrosterone] | 0.985 | 0.818 | 0.835 | 0.617
COP(=O)(OC)SCn1c(=O)oc2cc(Cl)cnc21 [Azamethiphos] | 0.963 | 1.03 | 0.699 | 0.749
C=C(C)C1C2OC(=O)C1C1(O)CC3OC34C(=O)OC2C14C (stereo not drawn) [Picrotoxinin] | 0.747 | 0.446 | 0.65 | 0.434
NC(=O)CN1CC(O)CC1=O (stereo not drawn) [Oxiracetam] | 1 | 1.3 | 1.02 | 1.22
CCC(=O)OC1CCC2C3CCC4CC(=O)C(C)CC4(C)C3CCC12C (stereo not drawn) [Drostanolone Propionate] | 0.864 | 0.627 | 0.625 | 0.42
Cc1cccc(C)c1NC(=O)CN1CCCC1=O [Nefiracetam] | 0.697 | 0.724 | 0.763 | 0.663
CCC1C2CC3C4N(C)c5ccccc5C45CC(C2C5O)N3C1O (stereo not drawn) [Ajmaline] | 0.662 | 0.969 | 0.71 | 0.699
CN1C2CC(OC(=O)C(CO)c3ccccc3)CC1C(O)C2 (stereo not drawn) [Raceanisodamine] | 0.984 | 1.37 | 0.877 | 0.981
O=C([O][Na])C(Cl)Cl [Sodium dichloroacetate (DCA)] | 1.01 | 0.701 | 0.964 | 0.597
